Data: the supplement of paper PMC4967469

How the values were obtained:
Experiment in all cases: Viability of human cancer cell lines after 72 h of drug (GDSC screen)
[1] = compound: C=C(c1ccc(C(=O)O)cc1)c1cc2c(cc1C)C(C)(C)CCC2(C)C [Bexarotene]; settings: top dose 8 µM
Procedure: (§1)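 Human cancer cell lines in 384-well plates, medium with 10% serum, drug for 72 h over a 256-fold dose range (nine 2-fold or five 4-fold steps up to the top dose). Adherent lines were fixed and stained with the nucleic acid dye Syto60, suspension lines read with resazurin; signal relative to control wells, capped at 0 and 100%. One two-parameter sigmoid per drug and line, fitted in a mixed model over all curves with the slope shared within a line.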

[2] = compound: COc1cc(C(=O)NC2CCN(C)CC2)ccc1Nc1ncc2c(n1)N(C1CCCC1)C(C)CC(=O)N2C [NPK76-II-72-1]; settings: top dose 10.24 µM; top dose inferred
Procedure: as §1

[3] = compound: COc1cc([C@@H]2c3cc4c(cc3[C@@H](O[C@@H]3O[C@@H]5CO[C@@H](C)O[C@H]5[C@H](O)[C@H]3O)[C@H]3COC(=O)[C@H]23)OCO4)cc(OC)c1O [Etoposide]; settings: top dose 16 µM
Procedure: as §1

[4] = compound: COc1ccc(C(=O)CC2(O)C(=O)Nc3c(Cl)ccc(Cl)c32)cc1 [YK 4-279]; settings: top dose 10 µM
Procedure: as §1

[5] = compound: Cc1ccc2nc(NCCN)c3ncc(C)n3c2c1 [BMS-345541]; settings: top dose 16 µM
Procedure: as §1

[6] = compound: NC(=O)Nc1cc(-c2cccc(F)c2)sc1C(=O)N[C@H]1CCCNC1 [AZD7762]; settings: top dose 2 µM
Procedure: as §1

[7] = compound: O=C(O)c1ccc(-c2c[nH]c3ncc(-c4ccccc4)cc23)cc1C1CCCC1 [GSK-650394]; settings: top dose 16 µM; top dose inferred
Procedure: as §1

[8] = compound: Oc1nc(-c2ccc(C(F)(F)F)cc2)nc2c1CSCC2 [XAV 939]; settings: top dose 5 µM; top dose inferred
Procedure: as §1

Cell Line	AUC [1]	IC50 [1]	AUC [2]	IC50 [2]	AUC [3]	IC50 [3]	AUC [4]	IC50 [4]	AUC [5]	IC50 [5]	AUC [6]	IC50 [6]	AUC [7]	IC50 [7]	AUC [8]	IC50 [8]
Detroit562 (head and neck, adherent)	0.956	> 8 µM	0.975	> 10.2 µM	0.828	9.39 µM	0.669	1.81 µM	0.954	> 16 µM	0.682	0.394 µM	0.653	2.61 µM	0.986	> 5 µM
EB2 (Burkitt lymphoma, suspension)	0.968	> 8 µM	0.617	1.3 µM	0.365	0.441 µM	0.962	> 10 µM	0.688	3.18 µM	0.636	0.285 µM	0.903	> 16 µM	0.989	> 5 µM
EB-3 (Burkitt lymphoma, suspension)	0.939	> 8 µM	0.801	5.99 µM	0.921	> 16 µM	0.859	> 10 µM	0.739	5.47 µM	0.897	> 2 µM	0.953	> 16 µM	0.973	> 5 µM
EBC-1 (lung squamous cell carcinoma, adherent)	0.934	> 8 µM	0.959	> 10.2 µM	0.608	2.07 µM	0.741	3.4 µM	0.943	> 16 µM	0.933	> 2 µM	0.905	> 16 µM	0.863	> 5 µM
EC-GI-10 (oesophagus, adherent)	0.987	> 8 µM	0.848	7.52 µM	0.975	> 16 µM	0.654	1.67 µM	0.924	> 16 µM	0.876	1.96 µM	0.983	> 16 µM	0.882	> 5 µM
ECC10 (stomach, suspension)	0.975	> 8 µM	0.945	> 10.2 µM	0.683	3.34 µM	0.617	1.33 µM	0.834	11.1 µM	0.82	1.22 µM	0.944	> 16 µM	0.983	> 5 µM
EFM-19 (breast, adherent)	0.863	> 8 µM	0.896	> 10.2 µM	0.498	0.984 µM	0.764	5.62 µM	0.857	> 16 µM	0.838	> 2 µM	0.826	> 16 µM	0.974	> 5 µM
EFM-192A (breast, adherent)	0.901	> 8 µM	0.914	> 10.2 µM	0.479	0.873 µM	0.761	3.91 µM	0.925	> 16 µM	0.959	> 2 µM	0.493	0.956 µM	0.984	> 5 µM
EFO-21 (ovary, adherent)	0.966	> 8 µM	0.884	> 10.2 µM	0.838	> 16 µM	0.883	> 10 µM	0.784	10.2 µM	0.837	> 2 µM	0.939	> 16 µM	0.959	> 5 µM
EFO-27 (ovary, adherent)	0.945	> 8 µM	0.923	> 10.2 µM	0.678	3.59 µM	0.789	5.69 µM	0.846	> 16 µM	0.691	0.496 µM	0.795	9.62 µM	0.976	> 5 µM
EGI-1 (biliary tract, adherent)	0.97	> 8 µM	0.972	> 10.2 µM	0.62	2.36 µM	0.843	> 10 µM	0.894	> 16 µM	0.834	1.9 µM	0.888	> 16 µM	0.92	> 5 µM
EJM (lymphoid neoplasm, semi-adherent)	0.986	> 8 µM	0.791	3.82 µM	0.846	8.98 µM	0.877	7.37 µM	0.884	12.5 µM	0.58	0.199 µM	0.983	> 16 µM	0.987	> 5 µM
EKVX (lung adenocarcinoma, adherent)	0.568	0.95 µM	0.956	> 10.2 µM	0.946	> 16 µM	0.963	> 10 µM	0.927	> 16 µM	0.826	> 2 µM	0.934	> 16 µM	0.811	> 5 µM
EM-2 (chronic myeloid leukaemia, suspension)	0.893	> 8 µM	0.585	1.13 µM	0.586	1.77 µM	0.676	2.08 µM	0.809	9.69 µM	0.486	0.114 µM	0.946	> 16 µM	0.951	> 5 µM
EN (endometrium, adherent)	0.955	> 8 µM	0.941	> 10.2 µM	0.947	> 16 µM	0.822	7.97 µM	0.89	> 16 µM	0.633	0.321 µM	0.928	> 16 µM	0.982	> 5 µM
EPLC-272H (lung squamous cell carcinoma, adherent)	0.98	> 8 µM	0.667	2 µM	0.603	2 µM	0.622	1.41 µM	0.813	10.1 µM	0.559	0.185 µM	0.693	3.76 µM	0.933	> 5 µM
ES5 (Ewing sarcoma, adherent)	0.982	> 8 µM	0.466	0.509 µM	0.815	10.4 µM	0.66	1.87 µM	0.719	4.65 µM	0.548	0.173 µM	0.979	> 16 µM	0.976	> 5 µM

Cell Line	AUC [1]	IC50 [1]	AUC [2]	IC50 [2]	AUC [3]	IC50 [3]	AUC [4]	IC50 [4]	AUC [5]	IC50 [5]	AUC [6]	IC50 [6]	AUC [7]	IC50 [7]	AUC [8]	IC50 [8]
ES7 (Ewing sarcoma, adherent)	0.886	> 8 µM	0.52	0.725 µM	0.457	0.761 µM	0.616	1.31 µM	0.71	3.99 µM	0.558	0.181 µM	0.982	> 16 µM	0.953	> 5 µM
ES-2 (ovary, adherent)	0.989	> 8 µM	0.803	4.37 µM	0.898	15.8 µM	0.889	8.97 µM	0.8	6.7 µM	0.422	0.0788 µM	0.987	> 16 µM	0.99	> 5 µM
ETK-1 (biliary tract, adherent)	0.938	> 8 µM	0.788	5.17 µM	0.663	3.04 µM	0.64	1.61 µM	0.853	15.2 µM	0.744	0.697 µM	0.736	5.22 µM	0.794	2.66 µM
EW-1 (Ewing sarcoma, semi-adherent)	0.974	> 8 µM	0.433	0.428 µM	0.574	1.57 µM	0.679	1.88 µM	0.815	7.89 µM	0.599	0.229 µM	0.929	> 16 µM	0.988	> 5 µM
EW-3 (Ewing sarcoma, adherent)	0.97	> 8 µM	0.778	4.75 µM	0.818	10.7 µM	0.726	3.03 µM	0.893	> 16 µM	0.847	1.8 µM	0.967	> 16 µM	0.976	> 5 µM
EW-7 (Ewing sarcoma, semi-adherent)	0.984	> 8 µM	0.564	0.938 µM	0.208	0.159 µM	0.829	5.23 µM	0.788	6.09 µM	0.634	0.278 µM	0.98	> 16 µM	0.986	> 5 µM
EW-11 (Ewing sarcoma, adherent)	0.957	> 8 µM	0.767	4.93 µM	0.691	4.06 µM	0.775	5.16 µM	0.848	> 16 µM	0.69	0.501 µM	0.981	> 16 µM	0.894	> 5 µM
EW-16 (Ewing sarcoma, adherent)	0.881	> 8 µM	0.803	5.37 µM	0.266	0.208 µM	0.691	2.2 µM	0.898	> 16 µM	0.713	0.516 µM	0.742	5.1 µM	0.953	> 5 µM
EW-18 (Ewing sarcoma, suspension)	0.968	> 8 µM	0.692	2.3 µM	0.805	8.74 µM	0.695	2.3 µM	0.834	11.4 µM	0.786	0.928 µM	0.886	> 16 µM	0.968	> 5 µM
FTC-133 (thyroid, adherent)	0.921	> 8 µM	0.986	> 10.2 µM	0.714	4.3 µM	0.732	3.09 µM	0.982	> 16 µM	0.628	0.292 µM	0.983	> 16 µM	0.952	> 5 µM
FU97 (stomach, adherent)	0.959	> 8 µM	0.96	> 10.2 µM	0.962	> 16 µM	0.723	2.74 µM	0.883	> 16 µM	0.735	0.597 µM	0.88	> 16 µM	0.968	> 5 µM
FU-OV-1 (ovary, adherent)	0.966	> 8 µM	0.824	8.81 µM	0.812	12.1 µM	0.899	> 10 µM	0.91	> 16 µM	0.822	1.68 µM	0.928	> 16 µM	0.962	> 5 µM
G-292 Clone A141B1 (osteosarcoma, adherent)	0.976	> 8 µM	0.918	> 10.2 µM	0.941	> 16 µM	0.8	8.86 µM	0.941	> 16 µM	0.855	> 2 µM	0.965	> 16 µM	0.972	> 5 µM
G-401 (kidney, adherent)	0.94	> 8 µM	0.807	5.88 µM	0.557	1.45 µM	0.707	2.55 µM	0.691	3.65 µM	0.888	> 2 µM	0.852	14.2 µM	0.981	> 5 µM
G-402 (soft tissue, adherent)	0.879	> 8 µM	0.941	> 10.2 µM	0.496	0.972 µM	0.712	3.07 µM	0.685	3.94 µM	0.428	0.0743 µM	0.739	6.17 µM	0.907	> 5 µM
GAK (melanoma, adherent)	0.906	> 8 µM	0.972	> 10.2 µM	0.837		0.814	5.1 µM	0.983	> 16 µM	0.819	1.06 µM	0.924	> 16 µM	0.944	> 5 µM

The IC50 comes from the fitted curve, where viability falls to half of the control; a fit beyond the top or the lowest dose is shown as a bound at that dose. AUC is the area under the same curve over the 256-fold range up to the top dose, as a fraction; values near 1 show little effect. For some assays here: The top dose, if marked as inferred, comes from the curve model; the source does not state it.
